Results: paper PMC4336329 (PLoS ONE, 2015)
The campaign covered roughly 310,000 compounds. About 2,200 (0.71%) showed an effect of 50% or more. Effects have a minus sign here. Some of the results follow.

target: human ether-à-go-go-related gene (hERG) potassium channel (human, UniProt Q12809); test: primary screen, population patch clamp on CHO cells stably expressing hERG
Sequence (Q12809 whole entry, looked up): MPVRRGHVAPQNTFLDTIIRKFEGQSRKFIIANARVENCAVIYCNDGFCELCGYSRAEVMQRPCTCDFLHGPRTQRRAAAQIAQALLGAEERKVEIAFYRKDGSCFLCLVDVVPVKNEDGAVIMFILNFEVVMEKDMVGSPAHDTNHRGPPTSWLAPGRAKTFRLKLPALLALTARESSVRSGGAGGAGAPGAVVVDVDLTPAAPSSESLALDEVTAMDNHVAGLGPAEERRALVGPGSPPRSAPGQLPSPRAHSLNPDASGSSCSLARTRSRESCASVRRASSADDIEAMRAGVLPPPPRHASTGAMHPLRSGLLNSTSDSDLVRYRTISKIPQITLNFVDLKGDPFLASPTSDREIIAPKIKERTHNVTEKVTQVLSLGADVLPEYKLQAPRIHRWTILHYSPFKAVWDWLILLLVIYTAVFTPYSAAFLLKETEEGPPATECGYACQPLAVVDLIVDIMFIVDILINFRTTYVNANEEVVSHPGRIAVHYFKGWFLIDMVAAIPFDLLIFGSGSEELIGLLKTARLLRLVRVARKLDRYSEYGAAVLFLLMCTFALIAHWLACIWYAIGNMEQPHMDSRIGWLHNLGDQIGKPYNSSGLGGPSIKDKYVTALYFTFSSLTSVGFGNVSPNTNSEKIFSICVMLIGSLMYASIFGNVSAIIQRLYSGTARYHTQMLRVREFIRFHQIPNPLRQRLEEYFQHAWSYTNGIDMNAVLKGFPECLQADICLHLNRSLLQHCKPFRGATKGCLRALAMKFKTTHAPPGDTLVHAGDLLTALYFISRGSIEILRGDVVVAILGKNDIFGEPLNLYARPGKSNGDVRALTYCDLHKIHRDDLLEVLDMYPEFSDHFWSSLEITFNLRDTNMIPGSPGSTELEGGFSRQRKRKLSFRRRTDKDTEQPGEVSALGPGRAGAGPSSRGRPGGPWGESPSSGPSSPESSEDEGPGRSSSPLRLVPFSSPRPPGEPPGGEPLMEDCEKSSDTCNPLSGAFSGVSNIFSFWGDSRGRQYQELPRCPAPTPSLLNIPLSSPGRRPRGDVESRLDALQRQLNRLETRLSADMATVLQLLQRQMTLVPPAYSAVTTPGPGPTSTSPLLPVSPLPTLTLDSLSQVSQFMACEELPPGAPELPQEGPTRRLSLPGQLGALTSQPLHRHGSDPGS

Compared with `COc1cc(Nc2nc(-c3ccccc3)c3cc(C)ccc3n2)cc(OC)c1OC`, `COc1cc(C(=O)OCC(=O)N2CCC(Cc3ccccc3)CC2)cc(OC)c1OC` is higher in “hERG current change (%, negative = inhibition) at 1uM” value: 1.28% for the first, 13.4% for the second.

Compared with `O=C(Nc1ccccc1OC(=O)N1CCCCC1)N1CCCCC1`, `O=C(C1CCC(=O)N(C2CCCC2)C1)N1CCC(Oc2ccccc2Cl)CC1` (stereo not shown) is lower in “hERG current change (%, negative = inhibition) at 1uM” value: 11% for the first, -25% for the second.

Compared with `Cc1cccc(N/C=C/c2onc(C)c2[N+](=O)[O-])c1`, `Cc1ccc(C(=O)Nc2ccccc2C(=O)N2CCOCC2)cc1[N+](=O)[O-]` is lower in “hERG current change (%, negative = inhibition) at 1uM” value: 13.9% for the first, 2.39% for the second.

Going from `CCOC(=O)N1CCC2(CC1)C(C#N)=C(N)Oc1n[nH]c(C)c12` to `Cc1cc(C(=O)CSc2nc3ccccc3[nH]2)c(C)n1CC1CCCO1` (stereo not shown), the “hERG current change (%, negative = inhibition) at 1uM” value falls from 6.24% to 2.17%.

Going from `COc1ccccc1-c1cc(C(=O)Nc2cccnc2Cl)no1` to `Fc1ccccc1NC(=S)Nc1cccnc1`, the “hERG current change (%, negative = inhibition) at 1uM” value falls from 16.9% to 11.8%.

Going from `O=C(NC(=S)Nc1cccc(S(=O)(=O)NC2=NCCC2)c1)c1cc(-c2ccco2)nc2ccccc12` to `O=C(Nc1cccc(C(F)(F)F)c1)C(Sc1ncnc2ccccc12)c1ccccc1` (stereo not shown), the “hERG current change (%, negative = inhibition) at 1uM” value rises from 9.95% to 10.2%.

Compared with `O=C(O)CCCNc1c(C(=O)Nc2ccc(Cl)cc2)cc([N+](=O)[O-])cc1[N+](=O)[O-]`, `O=C(NNS(=O)(=O)c1ccc([N+](=O)[O-])cc1)c1ccncc1` is lower in “hERG current change (%, negative = inhibition) at 1uM” value: 16% for the first, 12.3% for the second.

Compared with `CCN(CC)c1nc(N)n(CCSC(=S)N(C)C)c(=O)n1`, `CCCn1c(SCC(=O)NC2CCCC2)nc2c1c(=O)n(C)c(=O)n2C` is lower in “hERG current change (%, negative = inhibition) at 1uM” value: 9.61% for the first, -4.32% for the second.

Compared with `O=C(Cc1ccccc1)N1CCN(Cc2cccc(Br)c2)CC1.O=C(O)C(=O)O`, `O=C1CN(C(=O)NCC(=O)N[C@@H](Cc2ccccc2)C(=O)O)c2ccccc2N1` is higher in “hERG current change (%, negative = inhibition) at 1uM” value: 4.34% for the first, 11.4% for the second.

Compared with `O=C(c1ccccc1Br)N1CCN(c2ccccn2)CC1`, `CCc1sc(C(=O)N2CCN(c3ncccn3)CC2)cc1Br` is higher in “hERG current change (%, negative = inhibition) at 1uM” value: 11.1% for the first, 11.2% for the second.

Going from `CCn1nnnc1SCC(=O)N(C)C1CCS(=O)(=O)C1` (stereo not shown) to `COc1ccc(S(=O)(=O)N2CCC(C(=O)N(CC(C)C)C3CCS(=O)(=O)C3)CC2)cc1OC` (stereo not shown), the “hERG current change (%, negative = inhibition) at 1uM” value rises from 2.32% to 8.42%.

First: Cc1cc(C)cc(NC(=S)N2CCN(c3ncccn3)CC2)c1
Second: CN1CCN(C(=O)c2cnn3c(C(F)F)cc(C4CC4)nc23)CC1
The “hERG current change (%, negative = inhibition) at 1uM” value of the first is lower: 1.28% for the first, 6.87% for the second.

Compared with `COC(=O)c1ccc(/C=C2/SC(=S)N(CCCC(=O)Nc3ccccn3)C2=O)cc1`, `COc1ccc(C(=O)NCC(=O)N/N=C/c2cccnc2)cc1OC` is higher in “hERG current change (%, negative = inhibition) at 1uM” value: 14.4% for the first, 17.4% for the second.

Compared with `N#C/C(=C\c1cn(Cc2ccccc2)c2ccccc12)C(=O)NCc1ccco1`, `O=C(NCc1ccco1)C(c1cccs1)N(C(=O)Cc1cccs1)c1ccccc1` (stereo not shown) is higher in “hERG current change (%, negative = inhibition) at 1uM” value: 8.94% for the first, 10.4% for the second.

Going from `Fc1ccc2c(c1)C(c1ccncc1)=NNC(c1ccccc1)=N2` to `COc1ccc(-n2c(C)nc3c(cnn3-c3ccccc3)c2=O)cc1`, the “hERG current change (%, negative = inhibition) at 1uM” value falls from 3.67% to -5.06%.

Going from `Cc1ccc(-n2c(SCC(=O)Nc3ccc4c(c3)OCO4)nnc2-c2cccs2)cc1` to `CCOc1ccc(C(=O)Nc2ccc3c(c2)C(=O)NC3=O)cc1`, the “hERG current change (%, negative = inhibition) at 1uM” value rises from 3.18% to 18.4%.

First: O=C(COc1ccccc1)NCCSCc1ccccc1Cl
Second: C=CCOc1ccccc1/C=N/NC(=O)Cc1ccccc1
The “hERG current change (%, negative = inhibition) at 1uM” value of the first is lower: 10.9% for the first, 14.3% for the second.

Going from `Cc1ccc(Cn2c(CN3CCOCC3)nc3c2c(=O)n(C)c(=O)n3C)cc1` to `Cn1c(=O)c2c(nc(NCCc3ccccc3)n2Cc2ccc(F)cc2)n(C)c1=O`, the “hERG current change (%, negative = inhibition) at 1uM” value falls from 3.22% to -0.534%.

Compared with `COc1ccc(-c2cc(=NC(CC(C)C)C(=O)O)c3cc(C)ccc3o2)cc1` (stereo not shown), `COc1ccc(C[C@H]2CN3C(=NC[C@@H]3Cc3ccc(O)cc3)N2C[C@H](C)NC(=O)c2ccc(C)c(Br)c2)cc1` is lower in “hERG current change (%, negative = inhibition) at 1uM” value: -3.35% for the first, -60.1% for the second.

First: CC(=O)c1ccc(Oc2ncnc3sccc23)cc1
Second: COc1ccc(CCNC(=O)CCc2ccc(OC)cc2)cc1
The “hERG current change (%, negative = inhibition) at 1uM” value of the first is higher: 12.7% for the first, 8.65% for the second.

Going from `COc1cccc(CN2C(=O)CCC2(C)C(=O)NCCc2ccc(OC)c(OC)c2)c1` (stereo not shown) to `COc1ccc2c(c1OC)C(=O)N(c1ccc(O)cc1)C2=O`, the “hERG current change (%, negative = inhibition) at 1uM” value rises from 1.35% to 8.72%.

Going from `C=CCC(NCCCO)c1cccc(OC)c1OC.Cl` (stereo not shown) to `C=CCOc1c(Br)cc(/C=N/NC(N)=O)cc1OC`, the “hERG current change (%, negative = inhibition) at 1uM” value falls from 9.83% to 0.552%.

Going from `CCc1sc(N)nc1-c1ccccc1` to `C/C(CC(O)c1ccc2ccccc2n1)=N/O` (stereo not shown), the “hERG current change (%, negative = inhibition) at 1uM” value falls from 11.5% to -3.1%.

Going from `CSc1sc(C(=O)NN)c2c1C(O)CCC2` (stereo not shown) to `CCC1(CC)NC(=O)N(CC(=O)Nc2sc3c(c2C(N)=O)CCC3)C1=O`, the “hERG current change (%, negative = inhibition) at 1uM” value falls from 11.2% to 3.78%.

Compared with `CCOc1ccccc1OCCCCCc1c(C)n[nH]c1C`, `CCOc1ccccc1N1CC(C(=O)N(Cc2nnc(-c3ccccc3Cl)o2)C2CC2)CC1=O` (stereo not shown) is lower in “hERG current change (%, negative = inhibition) at 1uM” value: 12.7% for the first, 6.5% for the second.

First: CN(C)CCCOC(=O)c1ccc(Br)cc1
Second: O=C(CCCc1ccccc1)Nc1ccc(Br)cc1F
The “hERG current change (%, negative = inhibition) at 1uM” value of the first is lower: -6.15% for the first, 14.5% for the second.

First: O=S(=O)(c1ccc2nc(Cc3cccc(C(F)(F)F)c3)[nH]c2c1)N1CCOCC1
Second: CS(=O)(=O)N(CC(=O)N/N=C/c1ccco1)c1ccccc1Br
The “hERG current change (%, negative = inhibition) at 1uM” value of the first is lower: 7.9% for the first, 9.55% for the second.

First: C=CCCCCCCCCc1nc(SCC(C)=O)n[nH]1
Second: CCOc1ccc2c(c1)cc(CN(C(=O)CC)C1CCCCC1)c1nnnn12
The “hERG current change (%, negative = inhibition) at 1uM” value of the first is higher: 13.5% for the first, -3.42% for the second.

Going from `CCn1c(O)c(C=NC2CCCC2)sc1=S` to `CC1CC1C(=O)OCC(=O)NCc1ccc(Cl)cc1Cl` (stereo not shown), the “hERG current change (%, negative = inhibition) at 1uM” value rises from -6.55% to 2.41%.
